# From publication PMC4336329 (PLoS ONE, 2015)
# About 2,200 (0.71%) of roughly 310,000 compounds showed an effect of 50% or more. Effects have a minus sign here. Some of the results follow.
# Target: human ether-à-go-go-related gene (hERG) potassium channel (human, UniProt Q12809)
# Experiment: primary screen, population patch clamp on CHO cells stably expressing hERG
# Sequence of human ether-à-go-go-related gene (hERG) potassium channel (Q12809 whole entry, looked up): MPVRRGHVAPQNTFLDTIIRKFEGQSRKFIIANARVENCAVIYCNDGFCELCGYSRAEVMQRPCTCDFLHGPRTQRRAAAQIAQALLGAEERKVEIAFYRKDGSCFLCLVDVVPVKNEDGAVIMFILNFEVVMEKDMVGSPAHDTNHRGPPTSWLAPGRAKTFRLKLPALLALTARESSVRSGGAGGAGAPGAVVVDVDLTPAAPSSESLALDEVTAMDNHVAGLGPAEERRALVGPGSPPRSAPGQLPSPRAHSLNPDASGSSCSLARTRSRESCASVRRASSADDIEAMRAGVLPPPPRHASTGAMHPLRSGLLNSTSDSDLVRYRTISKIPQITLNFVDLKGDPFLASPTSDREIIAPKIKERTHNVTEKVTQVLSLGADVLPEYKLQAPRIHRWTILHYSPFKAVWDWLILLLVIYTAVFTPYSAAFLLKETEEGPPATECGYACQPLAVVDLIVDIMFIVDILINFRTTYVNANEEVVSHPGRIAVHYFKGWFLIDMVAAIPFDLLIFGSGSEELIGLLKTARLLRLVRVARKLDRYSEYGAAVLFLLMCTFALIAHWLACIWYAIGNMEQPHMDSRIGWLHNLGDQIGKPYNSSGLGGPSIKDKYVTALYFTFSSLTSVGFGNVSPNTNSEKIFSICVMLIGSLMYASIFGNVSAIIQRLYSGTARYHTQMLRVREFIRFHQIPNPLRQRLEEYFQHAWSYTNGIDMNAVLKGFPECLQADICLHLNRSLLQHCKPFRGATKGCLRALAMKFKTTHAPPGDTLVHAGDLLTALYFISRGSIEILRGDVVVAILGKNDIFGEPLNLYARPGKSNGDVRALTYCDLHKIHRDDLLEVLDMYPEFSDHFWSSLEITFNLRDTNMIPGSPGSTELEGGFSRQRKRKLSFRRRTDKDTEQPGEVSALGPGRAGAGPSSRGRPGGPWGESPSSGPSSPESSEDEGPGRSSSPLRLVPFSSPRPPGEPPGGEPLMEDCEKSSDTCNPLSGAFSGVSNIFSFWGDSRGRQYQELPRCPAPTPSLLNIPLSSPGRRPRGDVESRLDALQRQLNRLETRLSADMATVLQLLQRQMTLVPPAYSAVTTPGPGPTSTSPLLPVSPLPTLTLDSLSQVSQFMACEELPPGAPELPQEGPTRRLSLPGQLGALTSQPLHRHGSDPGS
row,Compound,"hERG current change (%, negative = inhibition) at 1uM [%]"
1,c1ccc2c(N3CCCCC3)nc(N3CCCC3)nc2c1,-64.6
2,CC1CC(C)CN(CCCNC(=O)C2CCCN(c3ncnc4c3nc3n4CCCCC3)C2)C1 (stereo not shown),0.841
3,CN(CCC#N)C(=O)COC(=O)c1ccc2c(c1)C(=O)N(C1CCCCC1)C2=O,14.1
4,CC(NC(=O)c1cc(-c2cccnc2)nc2ccc(Br)cc12)C1CCCO1 (stereo not shown),7.77
5,CC(Sc1nc2ccccc2[nH]1)C(=O)Nc1ccccc1F (stereo not shown),11.6
6,COc1ccc(C(=O)Nc2ccc(C(=O)Nc3cccc(C)c3)cc2)cc1,17.1
7,Cc1noc(COc2ccccc2OCC(N)=O)c1Cl,4.47
8,COc1cccc(C(=O)N/N=C/c2ccc(OC)c(COc3ccccc3C(N)=O)c2)c1,11.9
9,Cc1c(NC(=S)N/N=C/c2cccc(O)c2)c(=O)n(-c2ccccc2)n1C,3.54
10,Cc1cc(C)c2oc(=O)cc(CN3CCN(Cc4ccccc4)CC3)c2c1,8.59
11,N#Cc1c(=O)c2nc(NCCCO)ncc2n2c(=O)c3ccccc3[nH]c12,13.5
12,CC1(C)Cc2cccc(OCC(=O)NC3CC3)c2O1,8.84
13,COCc1c(C(=O)OCC(=O)N2CCCC2=O)oc2ccccc12,17.5
14,C#CCn1c(=NC(=O)CSC(C)=O)sc2cc(F)ccc21,11.8
15,[Br-].c1ccc(-c2cn(-c3ccccc3)c3[n+]2CCS3)cc1,0.1
16,O=C(O)c1cccc(Cn2c(Cl)c(/C=N/NC(=O)c3cc4ccccc4cc3O)sc2=O)c1,13.1
17,O=C(CN1C(=O)CSc2ncccc21)Nc1ccccc1F,10.8
18,CNC(=O)COC(=O)Cc1ccc(Cl)cc1,2.48
19,CC1=CN2C(=N)/C(=C/c3ccc(Sc4ccc(C)cc4)o3)C(=O)N=C2S1,13.7
20,COc1ccc(-n2c(Cn3nnc4ccccc43)nnc2SCC(=O)O)cc1,11.8

row,Compound,"hERG current change (%, negative = inhibition) at 1uM [%]"
1,CC(=O)OC1c2ccccc2C(=O)N1Cc1ccccc1 (stereo not shown),12.1
2,CN1C2CCC1CC(OC(=O)c1c[nH]c3ccccc13)C2.Cl (stereo not shown),-4.75
3,CCCOc1ccc(C(=O)C(CN2CCOCC2)c2ccccc2)cc1 (stereo not shown),2.75
4,CSCCC(NC(=O)c1ccccc1)C(=O)N1CC(C)OC(C)C1 (stereo not shown),2.34
5,COc1ccccc1NC(=S)NC(C)C(c1cccs1)N1CCOCC1 (stereo not shown),8.67
6,COc1c2c(nc3occc13)C(CC=C(C)C)(OC)C(OC(C)=O)CC2 (stereo not shown),12.6
7,COc1ccc(CC(=O)OCC(=O)c2ccc[nH]2)cc1,9.13
8,CCOc1ccccc1N(CC(=O)NC1CCCCC1)C(=O)CNC(=O)c1ccco1,17.9
9,CN(C)Cc1nc2c([nH]1)c(=O)n(C)c(=O)n2C,1.78
10,N#CC1=C2SCC(O)(c3ccccc3)N2C(=O)CC1c1cccs1 (stereo not shown),-13.3
11,Cc1ccc2[nH]c(=O)c(CN(CC3CCCO3)C(=O)c3cccs3)cc2c1 (stereo not shown),8.55
12,CCCCN1C(=O)/C(=C\c2ccco2)C(=O)N(CCc2ccccc2)C1=O,13.3
13,CN1CCN(S(=O)(=O)c2ccc(SCCOc3ccccc3)nc2)CC1,-16.4
14,COc1ccc(C2SCC(=O)Nc3c2c(=O)[nH]n3C2CCCCC2)cc1 (stereo not shown),13.7
15,Cc1cc(C)nc(N2CCN(S(=O)(=O)c3ccc(F)cc3)CC2)n1,15.4
16,COc1ccc(/C=C/C(=O)c2ccoc2)cc1,11.4
17,O=C1C=C(c2cc3ccccc3s2)C[C@@H](c2ccc(F)cc2)C1,2.12
18,COc1ccccc1NC(=O)Nc1ccnn1C1CCN(C(=O)c2cccnc2)CC1,2.73
19,Cc1ccc(C(=O)Nc2ccc(Oc3cccc(C(F)(F)F)c3)nc2)cc1,14
20,O=C(CSc1nnc2ccccn12)Nc1ccc2c(c1)OCO2,11.5

row,Compound,"hERG current change (%, negative = inhibition) at 1uM [%]"
1,O=C(O)c1cccc2c1C(=O)N(C1CCCC1)C2,11.2
2,COc1ccccc1NS(=O)(=O)c1cc(NC(=O)c2cc(=O)[nH]c3ccccc23)ccc1N1CCOCC1,1.92
3,COC(=O)c1ccc(C(=O)OC)c(=O)[nH]1,14.8
4,Cc1nnc(NC(=O)C(C)Sc2nnc(-c3ccco3)n2C)s1 (stereo not shown),14.5
5,O=C(OC(C(=O)NCc1cccs1)c1ccccn1)c1cccs1 (stereo not shown),5.25
6,COc1ccc2c(c1)-c1nc(NC(=O)c3ccco3)sc1CC2,14.4
7,Cc1oc(-c2cccs2)nc1CN1CCN(C(C)C)C(CCO)C1 (stereo not shown),12.9
8,CC(=O)c1cc2c(cc1NC(=O)Cn1cnc3ccccc3c1=O)OCO2,0.594
9,CCN(CC)CCCNc1oc(/C=C/c2ccccc2)nc1C#N,-17.7
10,COC(=O)C1CN(C(=O)C(C)Oc2cccc(C)c2C)c2ccccc2O1 (stereo not shown),11.6
11,COc1cccc(NC(=O)CC2C(=O)NC3CCCCC3N2C(=O)c2ccc(F)cc2)c1 (stereo not shown),9.58
12,CC(C)CCN1CCN(Cc2ccc(C#CC(C)(C)O)s2)CC1CCO (stereo not shown),12
13,CC(=O)c1cccc(Nc2ccc(-c3ccccc3F)nn2)c1,-13.3
14,Cc1n[nH]c(C)c1S(=O)(=O)N1CCCC(C(=O)NC2CCCc3ccccc32)C1 (stereo not shown),7.74
15,CCC1=NN2C(=N)/C(=C\c3ccc(OCCOc4ccc(NC(C)=O)cc4)cc3)C(=O)N=C2S1,0.37
16,COc1ccccc1NC(=O)C1CCCN(c2ncnc3c2nc2n3CCCCC2)C1 (stereo not shown),-3.34
17,O=S1(=O)N=C(N2CCN(c3ccc(F)cc3)CC2)c2ccccc21,-0.769
18,CC1(C)OC2OC(COC(=O)c3ccccc3)C3OC(C)(C)OC3C2O1 (stereo not shown),3.75
